Assay results from PubChem BioAssay (NCI).
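48-hour exposure; five concentrations; linearly interpolated endpoints. Abbreviation: GI50, concentration required for 50% inhibition of growth. TGI is the concentration that stops growth completely.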

test system: NCI-H322M lung; experiment: inhibition of tumour cell growth, NCI panel, 48 h

Compound	GI50	TGI
COc1ccc2nc(Cl)c(-c3cc(-c4ccccc4)nc(N)n3)cc2c1	14.7 µM	59.4 µM
O=C(Nc1ccc(C(F)(F)F)cc1)Nc1ccc2oc(=O)ccc2c1	38.1 µM	> 100 µM
N#CC1=C(c2ccco2)Nc2c(c(-c3ccccc3)nn2-c2ccccc2)C12C(=O)Nc1ccc(Cl)cc12 (stereo unspecified)	35.4 µM	> 100 µM
